{"source": "PubChem BioAssay AID463173", "about": "(ICCB-Longwood Screening Facility, Harvard Medical School, 2010)", "note": "Where “and” joins values, the source holds several entries; their conditions need not be identical. Identical values can stand only once. In all, about 52,000 compounds went through this assay and about 4,300 (8.3%) were called active. Cut-off read from the data, not from the text of the source: active = survival mostly below about 52% (no sharp cut-off); inactive = mostly above about 56%. Some of the results follow. The source holds several records for some structures; these can differ, active in one and inactive in another."}
{"tested_on": "DeltatarO mutant", "experiment": "growth inhibition of S. aureus wild type versus tarO mutant, primary screen, teichoic acid synthesis inhibitors, RN4220, OD600 (AID 463173)", "details": "OD600, 18 h, stronger effect = lower value, screened at 18.75 µg/mL (by protocol)"}
{"smiles": "O=C(Cn1cc(S(=O)(=O)Cc2cccc(Cl)c2)c2ccccc21)NCc1ccccc1Cl", "survival": "inactive: 91%"}
{"smiles": "CCOC(=O)c1c(C)[nH]c(C)c1S(=O)(=O)NCC(=O)NCc1cccc(Br)c1", "survival": "inactive: 130%"}
{"smiles": "CC(C)CCSc1nnc2n(-c3ccccc3)c(=O)c3c4c(sc3n12)CC(C)CC4", "note": "(configuration not stated)", "survival": "inactive: 70%"}
{"smiles": "CCc1ccc(NC(=O)Cn2c(=O)nc(-c3ccccc3F)c3cc(Cl)ccc32)cc1", "survival": "inactive: 83%"}
{"smiles": "COC(=O)c1ccccc1N(C)S(=O)(=O)c1cc2c3c(c1)CC(=O)N3CCC2", "survival": "inactive: 78%"}
{"smiles": "Cc1cc(C)nc(-n2nc(C)c3c2N(Cc2ccccc2C)C(=O)CC3c2ccc(Cl)cc2)n1", "note": "(configuration not stated)", "survival": "inactive: 72%"}
{"smiles": "O=C(Nc1ccc(Oc2ccccc2)cc1)c1ccc(F)c(S(=O)(=O)N2CCN(c3ccccc3F)CC2)c1", "survival": "inactive: 87%"}
{"smiles": "Cc1c(NS(=O)(=O)c2ccc(Cl)cc2)c(=O)n(-c2ccccc2)n1C", "survival": "inactive: 94%"}
{"smiles": "Cc1nc2c(c(C)c1CCC(=O)Nc1ccc(F)cc1)c(=O)n(C)c(=O)n2C", "survival": "inactive: 99%"}
{"smiles": "CCc1cccc(-n2nnc(S(=O)(=O)c3ccc(OC)cc3)c2C)c1", "survival": "inactive: 101%"}
{"smiles": "COc1ccc(C2=NN(CCC(=O)NCCc3ccccc3)C(=O)CC2)cc1", "survival": "inactive: 117%"}
{"smiles": "COc1ccccc1CCNC(=O)C(=O)NCC(c1cccnc1)N1CCN(c2ccccc2)CC1", "note": "(configuration not stated)", "survival": "inactive: 51%"}
{"smiles": "Cc1ccc(Cn2cc(CCC(=O)NCC(C)c3ccccc3)c3ccccc32)cc1", "note": "(configuration not stated)", "survival": "inactive: 98%"}
{"smiles": "COc1ccc(NC(=O)Cn2nnc(-c3nc(-c4ccncc4)no3)c2N)cc1OC", "survival": "inactive: 88%"}
{"smiles": "Cc1cccc(C)c1NC(=O)C1CCCN1S(=O)(=O)c1cccc2nsnc12", "note": "(configuration not stated)", "survival": "inactive: 51%"}
{"smiles": "CCn1cc(C(=O)N2CCN(c3cccc(C)c3)C(C)C2)c(=O)c2cc(S(=O)(=O)N3CCOCC3)ccc21", "note": "(configuration not stated)", "survival": "inactive: 87%"}
{"smiles": "Nc1nc(Nc2cccc3ccccc23)nc(C2CCCC2=O)n1", "note": "(configuration not stated)", "survival": "inactive: 60%"}
{"smiles": "COc1ccc(-c2nsc(NC(=O)c3oc4ccccc4c3C)n2)cc1", "survival": "inactive: 72%"}
{"smiles": "CCCNc1ncnc2c1c(-c1ccccc1)cn2-c1ccccc1", "survival": "inactive: 76%"}
{"smiles": "Cc1coc2c(C)c3oc(=O)c(CCC(=O)N4CCCCC4)c(C)c3cc12", "survival": "active: 44%"}
{"smiles": "COCCn1c(C)cc(O)c(C(c2ccccc2Cl)N2CCCCC2)c1=O", "note": "(configuration not stated)", "survival": "inactive: 80%"}
{"smiles": "N#Cc1ccccc1OCC(=O)N1CCN(c2ccccc2)CC1", "survival": "inactive: 90%"}
{"smiles": "CN(C)c1ccc(CNC(=O)CCCN2C(=O)CCn3nc(-c4cn(C)c5ccccc45)cc32)cc1", "survival": "active: 17%"}
{"smiles": "Cc1cc(=O)c2cc(C(=O)Nc3cccc(C)c3C)ccc2[nH]1", "survival": "inactive: 77%"}
{"smiles": "Cc1ccc(NC(=O)c2cccc(NC(=O)N3CCSc4ncccc43)c2)cc1F", "survival": "inactive: 88%"}
{"smiles": "CCOc1ccc(CNC(=O)c2ccc(NC(=O)N3CCSc4ncccc43)cc2)cc1", "survival": "inactive: 67%"}
{"smiles": "CCCN1C(=O)c2oc3cc(C)cc(C)c3c(=O)c2C1c1ccc(F)cc1", "note": "(configuration not stated)", "survival": "active: 49%"}
{"smiles": "COc1ccc(-c2cc(C(F)(F)F)nc(SCC(=O)Nc3ccc(O)cc3)n2)cc1OC", "survival": "inactive: 63%"}
{"smiles": "Cc1ccc(C)c(NC(=O)c2cnc3sc(N4CCOCC4)nn3c2=O)c1", "survival": "inactive: 116%"}
{"smiles": "CCN(CC)CCCNC(=O)CCc1c(C)nc2c(c1C)c(=O)n(C)c(=O)n2C", "survival": "inactive: 96%"}
{"smiles": "Cn1cc(C(=O)O)c(=O)c2cc(S(=O)(=O)N3CCOCC3)ccc21", "survival": "inactive: 67%"}
{"smiles": "COc1ccccc1NC(=O)c1oc2ccccc2c1NC(=O)Cc1cccs1", "survival": "inactive: 72%"}
{"smiles": "COc1ccc(-n2c(SCC(=O)c3ccc(Cl)cc3)nc3c([nH]c4ccccc43)c2=O)cc1", "survival": "inactive: 69%"}
{"smiles": "COc1cccc(NC(=O)Cn2c(=O)n(-c3ccccc3)c(=O)c3ccc(C(=O)NCc4ccc5c(c4)OCO5)cc32)c1", "survival": "inactive: 106%"}
{"smiles": "CCOC(=O)c1cc(=O)n2[nH]c(-c3ccc(C)cc3)cc2n1", "survival": "inactive: 84%"}
{"smiles": "COc1cc2c(cc1OC)C(c1ccc(Cl)cc1)N(c1cccc(C#N)c1)C(=O)C2", "note": "(configuration not stated)", "survival": "inactive: 89%"}
{"smiles": "COc1ccccc1N1CCN(c2ccc(=O)n(CC(=O)Nc3cc(F)ccc3C)n2)CC1", "survival": "inactive: 91%"}
{"smiles": "COc1ccccc1-c1nnc(C2CCN(S(=O)(=O)c3ccc(CC(C)C)cc3)CC2)o1", "survival": "inactive: 58%"}
{"smiles": "Nc1c(C(=O)Nc2ccc(C(F)(F)F)cc2)sc2nc(-c3cccs3)ccc12", "survival": "inactive: 70%"}
{"smiles": "O=C(CCc1ccccc1)NCc1ccc2c(c1)CCN2C(=O)c1ccccc1", "survival": "inactive: 76%"}
{"smiles": "COc1cccc(-c2nc(SCc3cccc(Br)c3)n3[nH]c(=O)cc3n2)c1", "survival": "inactive: 92%"}
{"smiles": "Cc1cc(NC(=O)CSc2nc(-c3cccc(F)c3)nc3c2c(=O)n(C)c(=O)n3C)no1", "survival": "inactive: 78%"}
{"smiles": "CCc1ccc(NC(=O)Cn2c(=O)n(CCCC(=O)NCc3ccccc3Cl)c(=O)c3ccccc32)cc1", "survival": "inactive: 105%"}
{"smiles": "Cc1ccc(-c2nc3cc(NC(=O)Cc4ccc(Cl)cc4)ccc3o2)cc1", "survival": "inactive: 68%"}
{"smiles": "COc1cc(NS(=O)(=O)c2ccc3c(c2)CC(C)N3C(=O)C2CCC2)cc(OC)c1OC", "note": "(configuration not stated)", "survival": "inactive: 85%"}
{"smiles": "COc1ccc2c(Sc3ccc(C)cc3)c(C(=O)NCC(C)c3ccccc3)[nH]c2c1", "note": "(configuration not stated)", "survival": "inactive: 91%"}
{"smiles": "COc1ccc(CCNc2ncnc3onc(-c4ccc(Cl)cc4)c23)c(OC)c1", "survival": "inactive: 86%"}
{"smiles": "CCc1ccc(NC(=O)CN2C(=O)C3CCCN3c3ccc(S(=O)(=O)N(CC)CC)cc32)cc1", "note": "(configuration not stated)", "survival": "inactive: 109%"}
{"smiles": "Cn1cc(S(=O)(=O)N2CCCCCC2)cc1C(=O)N1CCN(c2ccccc2F)CC1", "survival": "inactive: 69%"}
{"smiles": "Cc1ccc(N(CC(O)Cn2c3ccccc3c3ccccc32)S(=O)(=O)c2ccc(F)cc2)cc1", "note": "(configuration not stated)", "survival": "inactive: 110%"}
{"smiles": "Cc1c(CC(=O)N2CCCCC2)c(=O)oc2cc(O)ccc12", "survival": "inactive: 50%"}
{"smiles": "Cc1ccccc1Nc1sc(C(=O)c2ccccc2)c(N)c1S(C)(=O)=O", "survival": "inactive: 99%"}
{"smiles": "CC(C)c1ccc(-c2noc(C3CCCN(C(=O)c4ccccc4)C3)n2)cc1", "note": "(configuration not stated)", "survival": "inactive: 86%"}
{"smiles": "CCOC(=O)c1ccc(OC(=O)c2cn(-c3ccc(C)cc3)c(=O)c3ccccc23)cc1", "survival": "inactive: 67%"}
{"smiles": "Cc1cc(OCC(=O)N(Cc2ccc(N(C)C)cc2)Cc2ccco2)cc(C)c1Cl", "survival": "inactive: 52%"}
{"smiles": "COc1ccc(NC(=O)Cn2c(=O)n(Cc3ccco3)c(=O)c3sc4ccccc4c32)c(OC)c1", "survival": "inactive: 80%"}
{"smiles": "Cc1ccc(NC(=O)C2CCCN(C(=O)c3cnn(-c4ccccc4)c3-n3cccc3)C2)cc1", "note": "(configuration not stated)", "survival": "inactive: 80%"}
{"smiles": "COCCCN1C(=O)c2[nH]nc(-c3cc(C)ccc3O)c2C1c1ccc(F)cc1", "note": "(configuration not stated)", "survival": "inactive: 66%"}
{"smiles": "COc1ccc(CNC(=O)c2cc3sccc3n2Cc2ccc(F)cc2)cc1", "survival": "inactive: 75%"}
{"smiles": "COc1ccc(CNCCC(c2ccc(C)cc2)c2ccco2)cc1", "note": "(configuration not stated)", "survival": "inactive: 64%"}
{"smiles": "O=C(Nc1noc2ccccc12)c1cccc(Cl)c1Cl", "survival": "inactive: 86%"}
{"smiles": "Cc1ccccc1NC(=O)C(Cc1ccccc1)N1Cc2ccccc2C1=O", "note": "(configuration not stated)", "survival": "inactive: 92%"}
{"smiles": "Cc1cccc(OCC(=O)Nc2ccc(S(=O)(=O)Nc3onc(C)c3C)cc2)c1C", "survival": "active: 40%"}
{"smiles": "COc1ccccc1-c1nc2c(c(SCc3cc(C)ccc3C)n1)Cc1c(CO)cnc(C)c1O2", "survival": "active: 41%"}
{"smiles": "Cc1ccc(CNC(=O)c2cc3c(=O)oc4ccc(C)cc4c3s2)cc1", "survival": "inactive: 91%"}
{"smiles": "COc1ccc(N(CC(=O)N2CCN(c3ccccc3F)CC2)S(=O)(=O)c2c(C)noc2C)cc1", "survival": "inactive: 119%"}
{"smiles": "CCCNC(=O)Cn1nc(-c2ccc(C)c(C)c2)c2cnc3ccc(OC)cc3c21", "survival": "inactive: 74%"}
{"smiles": "COc1ccccc1NC(=O)Cn1cnc2ccc(S(=O)(=O)N3CCC(C)CC3)cc2c1=O", "survival": "inactive: 66%"}
{"smiles": "COc1ccc2oc(=O)c(C(=O)NCCc3c(C)[nH]c4ccc(C)cc34)cc2c1", "survival": "active: 40%"}
{"smiles": "Cc1ccc(-n2nc(C)c3c(C)cc(=O)n(CC(=O)Nc4cc(Cl)ccc4C)c32)cc1", "survival": "inactive: 125%"}
{"smiles": "Nc1ccc2oc(-c3ccccc3Br)nc2c1", "survival": "inactive: 87% and active: 39%"}
{"smiles": "Cc1cccn2c(=O)cc(COc3ccc(NC(=O)C(C)C)cc3)nc12", "survival": "inactive: 87%"}
{"smiles": "COC(=O)c1sccc1S(=O)(=O)N(CC(=O)Nc1ccccc1C)c1ccc(Cl)cc1", "survival": "inactive: 130%"}
{"smiles": "Cc1ccccc1NC(=O)CSc1nc2ccc(NC(=O)CCc3ccccc3)cc2s1", "survival": "inactive: 71%"}
{"smiles": "O=C(O)CSc1nnnn1C1CCCCC1", "survival": "inactive: 56%"}
{"smiles": "CCc1nnc(NC(=O)CSc2nc3c([nH]c4ccccc43)c(=O)n2-c2ccc(F)cc2)s1", "survival": "inactive: 84%"}
{"smiles": "Cc1ccc2oc(=O)c3cc(C(=O)Nc4ccc(C)c(F)c4)sc3c2c1", "survival": "inactive: 77%"}
{"smiles": "COc1ccc(Cn2nnnc2C(c2cccs2)N2CCOCC2)cc1", "note": "(configuration not stated)", "survival": "inactive: 93%"}
{"smiles": "Cc1c(Cl)cccc1NC(=O)c1cc(S(=O)(=O)N2CCCCC2)cn1C", "survival": "inactive: 99%"}
{"smiles": "CC(O)C(=O)NS(=O)(=O)c1ccccc1", "note": "(configuration not stated)", "survival": "inactive: 107%"}
{"smiles": "COc1ccc(NC(=O)Cn2nnc(C(=O)NCc3ccco3)c2N)c(OC)c1", "survival": "inactive: 108%"}
{"smiles": "COc1ccccc1NC(=O)c1c(C)cc(C)nc1SCC(=O)Nc1ccc(C)cc1", "survival": "inactive: 51%"}
{"smiles": "Cc1cc(Nc2cccc(Br)c2)n2c(nc3ccccc32)c1C#N", "survival": "inactive: 58%"}
{"smiles": "Cc1ccc(N2CCN(C(=O)c3cn(C)c4ccc(S(=O)(=O)N5CCCC5)cc4c3=O)CC2C)cc1", "note": "(configuration not stated)", "survival": "inactive: 143%"}
{"smiles": "CCOc1cc(C(Nc2cc(C)ccn2)c2ccc3cccnc3c2O)ccc1OC", "note": "(configuration not stated)", "survival": "inactive: 146%"}
{"smiles": "COC(=O)C1=C(C)NC(=O)/C1=C\\c1ccc(C)cc1", "survival": "inactive: 100%"}
{"smiles": "CC(=O)Nc1ccc(S(=O)(=O)NCC2CCC(C(=O)NCc3ccccc3)CC2)cc1", "note": "(configuration not stated)", "survival": "inactive: 71%"}
